Test results reported in the RNAGym collection of RNA variant scans (doi:10.1073/pnas.2313332121).
Variants at the floor of the assay are shown more often than the library holds them.

B1: TPR 5TU (parent)
chain: GGAUCUUCUCGAUCUAACAAAAAAGACAAAUCUGCCACAAAGCUUGAGAGCAUCUUCGGAUGCAGAGGCGGCAGCCUUCGGUGGCGCGAUAGCGCCAACGUUCUCAACUAUGACACGCAAAACGCGUGCUCCGUUGAAUGGAGUUUAUCAUG

Variants of: B1
Assay: polymerase ribozyme fitness, log enrichment relative to wild type (log ratio); higher = more active; in vitro selection for triplet polymerase activity
Procedure, shortened: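 Libraries of mutants in each subunit of a heterodimeric triplet polymerase ribozyme were generated by PCR and transcribed. In triplicate, each went through one in vitro selection round: annealing with biotinylated primer, partner subunit and triplets; frozen incubation at −7 °C; gel excision of extended constructs; streptavidin-bead capture; RT-PCR. Fitness, taken from Illumina sequencing of input and output libraries, is the logarithm of a genotype's enrichment over wild-type enrichment, averaged across replicates with inverse-variance weights. The logarithm is base 2, and genotypes needed ≥10 input reads and ≥1 read per output to be kept.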

Polymerase ribozyme fitness (log ratio), ≤ -4.2:
U6A C51A G62A C75A G81C G88C C125G
U6A C54A C87G
U6A C85A C93A G141U
U6A C85A C108U C114U
U6A C93U A98G C103A
U6A G11U G48C C87A C105U U144A
U6A G25U C38A C87A G88A C96U A137C
U6A G34C A66G G86U A107C G141U
U6A G42U G62A C69U C93A U101G
U6A U13A U15A G58C C87G A98G
U6A U33C A49C A91C A138G
U6A U55A A91U U101G U111A
U6A U56G A60C A73G G84U C85A A107U C114U U148G
U6A U78A A91U G94A A115G
U6C A12G C43A A60G C95U C114G
U6C A19G A23U A24C G86A G92A C105G A142U
U6C A20C G46A G50A U53A U102G A113C U134A
U6C A21U A23G A64G C75G A91G G100A A120G A147C
U6C A22G C27A G83C C85A U101C U104A
U6C A22U C35U A60U A89G A91U A106G
U6C A23U C76G G80U G88A C96U U135C
U6C A24U G80C A91U C108G
U6C A26G A110G C118A
U6C A30U G58C C95U U135C U144A
U6C A39U G67U U90C G94A G141U
U6C A40C C69U C72A C76G C93G
U6C A40G A52G C57A U78G C93A U148G
U6C A47C C76G C79U C93A C108G
U6C A52G G70A C96A U102G C129G G143A U146A
U6C C8A A12G C27U G34C U61A C85U A98G G128A
U6C C8A C96U C105A A138U
U6C C14U A26C A28U A49U
U6C C18U G86U A107G
U6C C27A U31A U56A G83A G86A A121U U145G U148C
U6C C27G G42A C43A G59U G83A C99A U101C U145G
U6C C76A C105U C132U
U6C C93G G143U
U6C G11A A23C G34A C69A G81A G100C
U6C G11C A39C U101A A121U
U6C G42C C51U C75A C116U
U6C G62A G71A G124C
U6C U9G G11A U13G A26U A29U A39U A106U
U6C U15G U31A G94A C95A U148C
U6C U53A C76A U90C C95G U104G
U6C U53G C79G A91C U109A
U6G A12C C14U A19U A24U A52C G67U C99U
U6G A16C A60U U78C A91U C116A G117U
U6G A16G A21G C32G G58U C75U
U6G A17C C38U A52C G58U A150C
U6G A17G A47U A49C C85U G92C
U6G A19C U77G C87G C95A U130A
U6G A19U C35A G83U G94C A106G
U6G A20G U31A A41G U55G C87A A147G
U6G A23C G67U A73G A98G G100A A119U
U6G A24U C75U C85U A91C C93G U145A
U6G A28U C85A G136U
U6G A29U C76U C87U U90A C95G A106U A107C G133A
U6G A41G G50A C103G A115C U148A
U6G A47C G70U C93U C116U
U6G A49C G67C U78C U90G C105G C114A C125G U145G
U6G A52G C72A C76A C93U A110G
U6G A64U U82A C87A
U6G C8G G34A C93U U127C
U6G C10G C14G U56A C87A A91C U104G
U6G C10G C69G A121C A150C
U6G C10U C38G C93G A142C
U6G C14U A37U C51U U55G C105U C149A
U6G C18G A39U A40U C93A G94U
U6G C54A C85U G86A C87U C93U G141A
U6G C54U C87A C99U U111A G152A
U6G G25U A28U C69A G83A C85U G92C G124U
U6G G25U U109G
U6G G42C G83U U130G U151G
U6G G50C G133U U146G
U6G G50C U56A C75U U82C C108G
U6G G50U G84A G92A A113U A137G U146A
U6G G83A A89U C96G C103G A113G
U6G U7A A20C A49U G65U C108G U144A
U6G U7A C54U C96G A113G C123A
U6G U7A U44G G50U G86A A89U C99U
U6G U13C G50C C54U A64U U78G C96G A98U A137C
U6G U13C U55A G67A U78A A97C A107C A115G U144G U151A
U6G U53A G71U C75U C76A A97G A106U G152A
U6G U56A C95U C96G A110G A119G G152U
U6G U61A G67A C87U A107U
U7A A12U A24G A60G G86U U111G C118U G140C
U7A A16C A21U A22U G58C A60G G65U C79G G81A C95A U127C
U7A A16U G25C C27U U56A G80U G92A U104G A106G
U7A A17U C57A G83A A137G
U7A A17U U56A G74A C85A G92U G112A
U7A A19U G70U C75U C103G A122G
U7A A20C A24U C54A C75G C76G U78G
U7A A20U A40C U56A U61A G133A G141U A142C
U7A A22C G71A A73U G88U A91C G126U A137G
U7A A24C G50U A52U C87G U134G
U7A A26U U53A A73U G92C U104A
U7A A28C G84U C105A G124U G143C
U7A A28U U44A U82C C87G G94U G152U
U7A A29C G68A C95A
U7A A37C A49G G68C C85U
U7A A40C C54G G84A A115G G133U
U7A A41C A47C A52U G74A U102G A119U G136C U139G U146G
U7A A47C U56A C87A C93G A121U C132G G143A U144C
U7A A49C G86A G88A C116A A119U C131U
U7A A52C C54U G74U G88U
U7A C8U G84A C99G C118U G143U
U7A C18G G34A C99U A119U
U7A C27A A64C G88C A106C
U7A C36A C54U U90A G141C G143C
U7A C51A G58A C76A C96A A122U G128A C149U
U7A C87G A120U
U7A C87U U90A C95G C118U
U7A G11A A16G C79A A138C U139A
U7A G34A G70A
U7A G50A U78A C79G G86A C87A C99G A142C
U7A G58C G88U C99A C149U
U7A G68A G80A G84U C105U
U7A U9G C10U A12G A24G G42C C87A C93G C103G G124C
U7A U13G A21U C54U G70A G83A C87A A89C U104G G112A U135A A147C
U7A U44A A49C C93U C123G U130G
U7A U55A G62U C72U G92C
U7A U90G
U7C A12G U33G U77G G84A A89U C99U
U7C A12U A23C A39U G88U C103A C118G U144A
U7C A16G A26U U109G
U7C A16U A19C G46C U90G C95A U102G U127C U148A
U7C A16U C36U G58C C87G A106C G117U C118A G143U
U7C A17G A29G A41C C87G
U7C A20C A29U G50A G86A G126A
U7C A20U A22G G50A G58C C87A
U7C A24G A29G G50U C75G C95G
U7C A24G A29G G70U G94U U135C G141U
U7C A29C C95A A122G
U7C A39C C116G U139G A150C
U7C C8A U55A U78A C85U C93U
U7C C8G A21C C27A A52C G68A G92A C105G
U7C C10U A22U A40U U55A G84U C118A A119C C149G
U7C C14A C18U A41U G84U C103U G112A
U7C C18A U55G G62C C75G A137U
U7C G50A C93G C125U U148A A150G
U7C U9A A52C C87A G92C G141A
U7C U9G U44G A73U C85G A115G U135G A147U
U7C U13C A19U G58A A66G C87G G100A
U7C U61A C75G U90C C93G
U7G A12G A17U U56C G74C C85A G100C
U7G A12U A17G A21C C76U C79U U82G C103G U127G
U7G A16C C35A A40U U53A C79U C87U U135C
U7G A16G G83C C95A A98U U101A A115U U144A
U7G A16U A21G A37U A49G G94A A119C C132G A138U
U7G A17U C35U C63U G94U C99G C123U G141C
U7G A19U A29C G83C C87U G117C
U7G A19U A47C C125A G136U A137C
U7G A20U A52C G88U C96U
U7G A21C C57U A60C G80A G86C C125U A150C
U7G A22G C76U U90G C103G U148A
U7G A23U G68C G92U
U7G A23U U53G G92U G128A U148A
U7G A24U C75U C87U G92A C96G C103G C105A G140C G141U U146A
U7G A28C A30U U44A U134A
U7G A28G A39U C85U A110U C114A A138U
U7G A28U G71A G83C
U7G A30U C63U C87G C105G U111C
U7G A39U U56G C75G C125U U146C
U7G A40G A41C A52U C57U U77G A122C G128U G141U
U7G A49G U61G C76G G88C A106U
U7G A52U U61A C93U A121G A137U
U7G C8A C32A A91C G94U C108G C123G G136U
